{"source": "PubChem BioAssay AID686971", "about": "(National Center for Advancing Translational Sciences (NCATS), 2013)", "note": "About 7,500 (2.1%) of roughly 360,000 compounds were called active. The shares of active, inactive and inconclusive entries below differ from those in the screen. The call rests on the fitted dose curve; in most records, active means well fitted cell-killing curve with a large enough effect; inconclusive means small, poorly fitted or top-dose-only effect, or effect the other way, or another doubt; inactive means no such curve, though single readings can be large or run the other way. Potencies of inconclusive entries are left out as doubtful fits. Potency means the concentration at half of the fitted maximal effect; tags describe the fitted curve by direction and shape.", "data": [{"assay": "qHTS for induction of synthetic lethality in tumor cells producing 2HG: qHTS for the HT-1080-IDH1KD cell line", "conditions": "HT-1080 IDH1 knockdown viability, ATP luminescence, 48 h; series mostly up to 46.1 µM", "outline": "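Knockdown cells (IDH1KD HT-1080) received compounds 2 h after plating at 750 cells/well and were kept 48 h at 37 °C in 5% FBS RPMI. A CellTiter-Glo luminescence read gave % activity for curve fitting.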", "values": [{"smiles": "FC(F)(F)c1nnc(-c2ccccc2)nc1Sc1ccccc1", "Potency": "inconclusive [cytotoxic, single point]"}, {"smiles": "COc1cccc(Nc2ccc(Nc3cccc(OC)c3)nn2)c1", "Potency": "inactive"}, {"smiles": "O=C(N/N=C/c1ccsc1)c1cc(-c2ccncc2)nc2ccccc12", "Potency": "inconclusive [cytotoxic, full curve]"}, {"smiles": "COC(=O)c1cc(Br)c(=O)n(-c2cc(C)on2)c1", "Potency": "inactive"}, {"smiles": "Cc1cc(C)n(-c2nc(N(C)C)nc(N3CCOCC3)n2)n1", "Potency": "inconclusive [cytotoxic, single point]"}, {"smiles": "CN(C)CCNC(=O)c1ccc(Sc2ccc(Br)cc2)c([N+](=O)[O-])c1", "Potency": "active: 18.4 µM"}, {"smiles": "CC(=O)N1CCc2cc(S(=O)(=O)Nc3cccc(C(F)(F)F)c3)ccc21", "Potency": "inconclusive [cytotoxic, partial curve]"}, {"smiles": "COc1cccc(-n2c(-c3ccccc3)c[nH]c2=S)c1", "Potency": "inactive"}, {"smiles": "COc1ccccc1OCCCOc1ccc(/C=C2\\SC(=O)NC2=O)cc1OC", "Potency": "inconclusive [cytotoxic, single point]"}, {"smiles": "CN(NS(=O)(=O)c1ccc(Br)cc1)c1nc(C(F)(F)F)nc2ccccc12", "Potency": "active: 18.4 µM"}, {"smiles": "CCSc1nnc(NC(=O)COc2ccc(Cl)cc2)s1", "Potency": "inactive"}, {"smiles": "O=C(Nc1ccccc1)Nc1cccc(Cl)c1", "Potency": "inconclusive [cytotoxic, single point]"}, {"smiles": "COc1ccccc1CCC(=O)Nc1ccc2c(c1)c(=O)n(C)n2-c1cccs1", "Potency": "inconclusive [cytotoxic, full curve]"}, {"smiles": "Cc1ccc(NC(=O)C2CCC(C(C)(C)C)CC2)cc1S(=O)(=O)N1CCOCC1", "note": "(stereo not given)", "Potency": "inconclusive [cytotoxic, single point]"}, {"smiles": "Cc1cccc(NC2=Nc3ccccc3N3C2=Nc2c(c(C)nn2-c2ccccc2)C3c2ccc(O)c(O)c2)c1", "note": "(stereo not given)", "Potency": "active: 16.4 µM"}, {"smiles": "Cc1ncc(CO)c2cc(C(=O)Nc3ccccc3Cl)c(=Nc3cccc(C(N)=O)c3)oc12", "Potency": "inactive"}, {"smiles": "CCCCCCSc1nnc(-c2cnn(-c3ccccc3)c2-n2cccc2)n1C", "Potency": "inconclusive [cytotoxic, single point]"}, {"smiles": "O=C([O-])c1cc(-c2ccccc2)cc(-c2ccccc2)[n+]1CCc1ccc(Cl)cc1", "Potency": "inconclusive [cytotoxic, single point]"}, {"smiles": "CCOc1ccccc1N(C(=O)c1snc(C(N)=O)c1N)C(C(=O)NCC1CCCO1)c1ccc2ncccc2c1", "note": "(stereo not given)", "Potency": "inactive"}, {"smiles": "O=C(NCCOc1ccccc1)c1cccc(S(=O)(=O)NCc2ccccc2)c1", "Potency": "inconclusive [cytotoxic, partial curve]"}]}]}
